# Reference: the supplement of paper PMC9446081
# Hit rate of the full screen: of about 39,000 compounds, about 220 (0.56%) showed activity. Some of the results follow.
# System: Escherichia coli K-12 BW25113
# Assay: relative growth (OD600 normalised to plate interquartile mean) (fraction); higher = less growth inhibition, active = 0.2 or less
# Details: 50 µM; LB; incubation time: overnight (16-24 h)
# 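Further: static incubation at 37 °C against the wild-type strain, values averaged over two biological replicates.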
row,Compound,relative growth
1,CNC1CC(N)C(O)C(OC2OC(CO)C3OC4(OC(C(N)CO)C(O)C(O)C4O)OC3C2O)C1O (stereo unspecified),inactive: 0.949
2,O=C1CN(S(=O)(=O)Cc2ccccc2)C[C@@H]2[C@@H](c3ccc(C#Cc4ccc(F)cc4)cc3)[C@H](CO)N12,inactive: 1.02
3,C[C@@H]1CN([C@H](C)CO)C(=O)CCCn2cc(nn2)CO[C@@H]1CN(C)S(=O)(=O)c1ccc(-n2cccn2)cc1,inactive: 0.985
4,C[C@H](CO)N1C[C@H](C)[C@H](CN(C)C(=O)Nc2ccc(C(F)(F)F)cc2)Oc2c(NC(=O)c3ccc(-c4nccs4)cc3)cccc2C1=O,inactive: 1.01
5,CC(C)NC(=O)Nc1cccc2c1O[C@@H](CN(C)S(=O)(=O)c1cccs1)[C@H](C)CN([C@H](C)CO)C2=O,inactive: 0.996
6,C[C@@H]1CCCCO[C@@H](CN(C)C(=O)Nc2cccc3ccccc23)[C@@H](C)CN([C@H](C)CO)C(=O)c2cc(NS(=O)(=O)c3ccc(Cl)cc3)ccc2O1,inactive: 1.01
7,CC(C)NC(=O)N(C)C[C@H]1Oc2c(NS(=O)(=O)c3cccs3)cccc2C(=O)N([C@H](C)CO)C[C@H]1C,inactive: 0.992
8,C[C@@H]1CCCCO[C@@H](CN(C)Cc2ccc(C(=O)Nc3ccccc3N)cc2)[C@@H](C)CN([C@H](C)CO)C(=O)c2cc(NC(=O)Nc3ccc(F)cc3)ccc2O1,inactive: 1
9,COc1ccc(NC(=O)Nc2cccc3c2O[C@@H](CN(C)S(C)(=O)=O)[C@H](C)CN([C@H](C)CO)C3=O)cc1,inactive: 0.974
10,C[C@H](CO)N1C[C@H](C)[C@@H](CN(C)C(=O)Nc2cccc3ccccc23)OCCCC[C@H](C)Oc2ccc(NS(C)(=O)=O)cc2C1=O,inactive: 1.01
11,NC(=O)CCCCC(N)=O,inactive: 0.996
12,CC(C)(O/N=C(\C(=O)N[C@@H]1C(=O)N2C(C(=O)O)=C(C[N+]3(CCNC(=O)c4ccc(O)c(O)c4Cl)CCCC3)CS[C@H]12)c1csc(N)n1)C(=O)O,active: 0.0469
13,Cc1ccc(S(=O)(=O)N2C[C@H](O)COC[C@@H]3O[C@H](CC(=O)NCc4ccc5c(c4)OCO5)CC[C@H]32)cc1,inactive: 1.02
14,C[C@H](CO)N1C[C@H](C)[C@@H](CN(C)C(=O)Nc2ccc(C(F)(F)F)cc2)OCCCC[C@H](C)Oc2ccc(NC(=O)C3CCCCC3)cc2C1=O,inactive: 1.02
15,C[C@@H]1CN([C@@H](C)CO)C(=O)c2cc(NC(=O)Nc3ccc(C(F)(F)F)cc3)ccc2O[C@H]1CN(C)C(=O)Nc1ccc(C(F)(F)F)cc1,inactive: 1
16,CO[C@@H]1CN(C)C(=O)c2ccc(NC(=O)C3CC3)cc2OC[C@H](C)N(C(=O)CN2CCOCC2)C[C@@H]1C,inactive: 0.984
17,Cc1cccc(NC(=O)Nc2ccc3c(c2)C(=O)N(C)[C@H]2CC[C@@H](CC(=O)NCc4ccccc4Cl)O[C@H]2CO3)c1,inactive: 1.03
18,COC(=O)CSc1nc(=O)c(C)n[nH]1,inactive: 1.03

row,Compound,relative growth
1,CN(C)CCNC(=O)[C@H]1Cn2ccnc2C2(CCN(Cc3nccs3)CC2)O1,inactive: 1.01
2,COc1ccc(S(=O)(=O)N2C[C@@H](O)COC[C@@H]3O[C@H](CC(=O)NCCN4CCCCC4)CC[C@H]32)cc1,inactive: 0.913
3,C[C@@H]1CCCCO[C@@H](CN(C)C(=O)Nc2cccc3ccccc23)[C@@H](C)CN([C@@H](C)CO)C(=O)c2cc(NC(=O)C3CCCCC3)ccc2O1,inactive: 1.01
4,C[C@@H]1CN([C@@H](C)CO)S(=O)(=O)c2ccc(-c3ccc(C(=O)N(C)C)cc3)cc2O[C@@H]1CN(C)C(=O)C1CCC1,inactive: 0.996
5,O=C(O)[C@H]1C[C@H](O)CN1Cc1ccccc1,inactive: 1.01
6,C[C@@H]1CN([C@@H](C)CO)C(=O)Cc2cc(NC(=O)Nc3cccc4ccccc34)ccc2O[C@H]1CN(C)Cc1ccc(-c2ccccc2)cc1,inactive: 1.03
7,C[C@H]1CN([C@@H](C)CO)C(=O)Cc2cc(NC(=O)Nc3cccc4ccccc34)ccc2O[C@@H]1CN(C)C(=O)Nc1ccccc1,inactive: 1.02
8,C[C@H]1CN([C@@H](C)CO)C(=O)CCCn2nncc2CO[C@@H]1CN(C)Cc1cccc2c1OCCCO2,inactive: 0.992
9,COc1ccc(S(=O)(=O)N(C)C[C@@H]2OCCCC[C@H](C)Oc3ccc(NC(=O)Nc4cccc5ccccc45)cc3C(=O)N([C@@H](C)CO)C[C@H]2C)cc1,inactive: 1.04
10,COc1ccc(S(=O)(=O)N(C)C[C@@H]2Oc3cc(C#CC4CC4)ccc3S(=O)(=O)N([C@@H](C)CO)C[C@@H]2C)cc1,inactive: 1.04
11,C[C@H](CO)N1C[C@H](C)[C@@H](CN(C)C(=O)NC2CCCCC2)Oc2c(NS(C)(=O)=O)cccc2C1=O,inactive: 0.988
12,CCS(=O)(=O)NCC[C@@H]1CC[C@@H](NC(=O)C2CCOCC2)[C@@H](CO)O1,inactive: 0.991
13,COc1ccc(S(=O)(=O)N(C)C[C@@H]2OCCCC[C@H](C)Oc3ccc(NC(=O)Nc4ccc5c(c4)OCO5)cc3C(=O)N([C@H](C)CO)C[C@@H]2C)cc1,inactive: 1.03
14,C[C@H]1CN([C@@H](C)CO)C(=O)c2cc(C#CC3(O)CCCC3)cnc2O[C@@H]1CN(C)C(=O)C1CCCCC1,inactive: 1.01
15,C[C@@H]1CN([C@@H](C)CO)C(=O)c2cccc(NC(=O)c3ccc(-c4nccs4)cc3)c2O[C@@H]1CN(C)Cc1ccc(Cl)c(Cl)c1,inactive: 1.04
16,C[C@@H]1CCCCO[C@@H](CN(C)S(=O)(=O)c2ccc(F)cc2)[C@@H](C)CN([C@@H](C)CO)C(=O)c2cc(NS(=O)(=O)c3cn(C)cn3)ccc2O1,inactive: 0.997
17,COCCOC(=O)N1C(=O)[C@@]2(c3ccccc31)[C@H](c1ccc(OCCO)cc1)N1[C@H](c3ccccc3)[C@H](c3ccccc3)OC(=O)[C@H]1[C@@H]2C(=O)N1CCc2cc(OC)c(OC)cc2C1,inactive: 1.04
18,Cc1noc(C)c1NC(=O)N(C)C[C@H]1Oc2c(NC(=O)c3ccc(-c4nccs4)cc3)cccc2C(=O)N([C@@H](C)CO)C[C@H]1C,inactive: 0.991
